The values below come from publication PMC4336329 (PLoS ONE, 2015).

Molecules are shown by their SMILES. Out of some 310,000 compounds screened, about 14,000 (4.5%) showed an effect of 50% or more. The effect is printed as a negative number. The list shows a part of the results. Where a SMILES comes first, the peptide text is derived from it. The star is where a group is joined. OBn = c1ccc(CO*)cc1
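Note: peak tail current of the secondary pulse compared with the same well before compound.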

human ether-à-go-go-related gene (hERG) potassium channel, sequence (Q12809 whole entry, looked up): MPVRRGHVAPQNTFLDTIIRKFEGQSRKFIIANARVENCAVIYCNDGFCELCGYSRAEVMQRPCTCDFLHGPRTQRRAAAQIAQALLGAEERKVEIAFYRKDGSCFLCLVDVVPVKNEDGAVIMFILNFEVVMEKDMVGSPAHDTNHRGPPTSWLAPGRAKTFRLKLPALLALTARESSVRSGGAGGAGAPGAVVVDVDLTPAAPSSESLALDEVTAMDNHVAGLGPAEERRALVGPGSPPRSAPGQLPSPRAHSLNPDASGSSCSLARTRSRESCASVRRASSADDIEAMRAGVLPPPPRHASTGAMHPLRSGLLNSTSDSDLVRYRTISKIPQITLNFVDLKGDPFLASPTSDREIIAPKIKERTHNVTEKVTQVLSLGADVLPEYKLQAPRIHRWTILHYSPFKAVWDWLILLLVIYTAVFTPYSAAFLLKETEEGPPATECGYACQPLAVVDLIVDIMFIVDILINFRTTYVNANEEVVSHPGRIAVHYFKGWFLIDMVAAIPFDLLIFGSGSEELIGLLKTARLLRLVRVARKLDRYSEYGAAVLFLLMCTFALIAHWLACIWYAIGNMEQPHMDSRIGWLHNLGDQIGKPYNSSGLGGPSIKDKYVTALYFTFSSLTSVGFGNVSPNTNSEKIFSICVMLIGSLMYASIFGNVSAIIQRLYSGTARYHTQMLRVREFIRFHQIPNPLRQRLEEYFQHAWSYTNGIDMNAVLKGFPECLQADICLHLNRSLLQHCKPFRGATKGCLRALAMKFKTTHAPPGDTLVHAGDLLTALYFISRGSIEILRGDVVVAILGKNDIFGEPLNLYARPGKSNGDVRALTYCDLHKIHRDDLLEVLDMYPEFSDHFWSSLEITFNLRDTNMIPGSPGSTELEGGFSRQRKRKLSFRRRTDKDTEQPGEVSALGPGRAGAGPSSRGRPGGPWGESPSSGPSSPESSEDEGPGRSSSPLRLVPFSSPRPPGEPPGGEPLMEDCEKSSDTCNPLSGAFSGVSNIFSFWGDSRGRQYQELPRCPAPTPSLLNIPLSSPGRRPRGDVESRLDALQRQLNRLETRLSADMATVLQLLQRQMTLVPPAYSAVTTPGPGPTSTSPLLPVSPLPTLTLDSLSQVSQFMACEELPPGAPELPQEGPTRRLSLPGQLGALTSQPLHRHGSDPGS

This test concerns the target human ether-à-go-go-related gene (hERG) potassium channel (human, UniProt Q12809). The experiment in a line: primary screen, population patch clamp on CHO cells stably expressing hERG.
`CC(=O)c1ccccc1NC(=O)COC(=O)C1CCCN1S(=O)(=O)c1ccccc1F` (stereo not drawn): the “hERG current change (%, negative = inhibition) at 10uM” value is given as -0.476%.
As for `CCN(CC)S(=O)(=O)c1ccc(N2CCOCC2)c(NC(=O)CC(C)(C)C)c1`, the “hERG current change (%, negative = inhibition) at 10uM” value came out at 0.733%.
Then `COc1ccc([C@@H]2[C@@H]3C(=O)N(C(C)(C)C)C(=O)[C@@H]3[C@]3(C)C(=O)N(c4cccc(C)c4)C(=O)N23)cc1`, with -20.4%.
For `COc1ccc(NC(=O)/C(=C\c2ccc(OC)c(OC)c2)NC(=O)c2ccco2)cc1` the value was -22%.
In the case of `CC1=C(C(=O)N2CCOCC2)C(c2ccc(C)cc2)NC(=S)N1` (stereo not drawn), the “hERG current change (%, negative = inhibition) at 10uM” value is on record as -8.86%.
Take `CCC1CCCCN1C(=O)CN1C(=O)CSC1=O` (stereo not drawn): the “hERG current change (%, negative = inhibition) at 10uM” value is on record as 16.4%.
For `COc1ccc(C2C(C(=O)N3CCN(c4ccccn4)CC3)CC(=O)N2c2ccc(OC)cc2)cc1` (stereo not drawn) the value was -78.7%; for `CCc1c(C)nc2ncnn2c1N1CCC(C(=O)N2CCN(c3ccc(F)cc3)CC2)CC1`, -67.9%; for `O=C(Nc1ccccc1F)N1CCC(NC(=O)C23CC4CC(CC(C4)C2)C3)CC1`, 9.42%.
As for `Cl.NCC(=O)NCC(=O)OCc1ccccc1` (H-Gly-Gly-OBn), the “hERG current change (%, negative = inhibition) at 10uM” value stood at 19.6%.
Regarding `CC(=O)NS(=O)(=O)c1ccc(NC(=O)COc2cccc3c2OC(C)(C)C3)cc1`, the “hERG current change (%, negative = inhibition) at 10uM” value is listed as 2.03%.
With `O=C1C(C2=NC(c3ccccn3)C3C(=O)N(c4ccc(OC(F)(F)F)cc4)C(=O)C23)=C(O)c2ccccc21` (stereo not drawn), the “hERG current change (%, negative = inhibition) at 10uM” value came to 12.2%.
Then `Cc1ccc(S(=O)(=O)c2n[nH]n3c2nc(=O)c2ccccc23)cc1`, with -9.72%; and `CC(=O)Nc1ccc(C(=O)n2cnc3cc(C)c(C)cc32)cc1`, with -3.23%; and `CC(C)C[C@H]1CN=C(Nc2ccccc2)N1CCC1CCCC1`, with -51.5%.
For `Cc1ccc(CNC(=O)C2c3ccccc3C(=O)N(C)C2c2c[nH]c3ccccc23)o1` (stereo not drawn), the “hERG current change (%, negative = inhibition) at 10uM” value is on record as -7.83%.
With `CCCCN(C1CCS(=O)(=O)C1)S(=O)(=O)c1ccc(OC)cc1` (stereo not drawn), the “hERG current change (%, negative = inhibition) at 10uM” value was -24.5%.
Turning to `CC1(C)Cc2c(c(-c3ccccc3)nc3[nH][nH]c(=O)c23)CO1`, the “hERG current change (%, negative = inhibition) at 10uM” value came out at 0.812%.
Take `CCc1nc(-n2[nH]c(=O)c3ccccc3c2=O)c2c3c(sc2n1)CCCC3`: the “hERG current change (%, negative = inhibition) at 10uM” value was found to be 11.5%.
`CCN(CC)S(=O)(=O)c1ccc(N2CCOCC2)c(NC(=O)CN2C(=O)NC(C)(c3ccccc3)C2=O)c1` (stereo not drawn): the “hERG current change (%, negative = inhibition) at 10uM” value is -24.1%.
For the compound `O=C(COC(=O)C1CC(=O)N(c2ccc3c(c2)OCCO3)C1)Nc1ccc2c(c1)CCC2` (stereo not drawn), the “hERG current change (%, negative = inhibition) at 10uM” value was 1.34%.
`CC(C)CCNC(=O)NC(=O)COC(=O)C1=COCCO1`: the “hERG current change (%, negative = inhibition) at 10uM” value was found to be 9.33%.
Then `COc1ccc(N2CCCC2)c(NC(=O)COc2ccccc2)c1`, with 11.5%.
`O=C(COc1ccc2c3c(c(=O)oc2c1)CCC3)NCCN1CCOCC1`: the “hERG current change (%, negative = inhibition) at 10uM” value is recorded as -5.25%.
For the compound `O=C(Nc1cc2c(cc1Cl)OCCO2)c1ccco1`, the “hERG current change (%, negative = inhibition) at 10uM” value is 17.6%.
`Cc1cnc(C(=O)OCC(=O)N(C)CC(=O)Nc2ccccc2Cl)cn1`: the “hERG current change (%, negative = inhibition) at 10uM” value is -2.14%.
Turning to `CC(=O)c1cccc(CN2CCCC(CCC(=O)NCc3ccc(C)o3)C2)c1` (stereo not drawn), the “hERG current change (%, negative = inhibition) at 10uM” value is listed as -16.2%.
In the case of `CCc1cc2c(C)ccc(C)c2nc1SCC(=O)Nc1c[nH]c(=O)[nH]c1=O`, the “hERG current change (%, negative = inhibition) at 10uM” value was 21.3%.
On to `COC(=O)c1ccc(CNC(=O)c2cc(COc3cncc(Cl)c3)on2)cc1`, for which the “hERG current change (%, negative = inhibition) at 10uM” value was found to be 12.4%.
For `CC(C)(C)OC(=O)N1CCN(C(=O)c2[nH]cnc2C(=O)Nc2ccon2)CC1` the value was 9.6%.
For `CC(C)CCNC(=O)C12CN(Cc3ccccc3)CC1C(c1ccc([N+](=O)[O-])cc1)=NO2` (stereo not drawn) the value was -53.1%.
For `COCCn1c(SCC(=O)N2CC(=O)Nc3ccccc32)nc2ccccc2c1=O`, the “hERG current change (%, negative = inhibition) at 10uM” value is on record as -26.9%.
For `Oc1ccc(/C=C/c2cc(O)cc(O)c2)cc1`, the “hERG current change (%, negative = inhibition) at 10uM” value was -1.26%.
For `CCn1ccnc1CN1CCCC(C(=O)c2ccc3c4c(cccc24)CC3)C1` (stereo not drawn), the “hERG current change (%, negative = inhibition) at 10uM” value is recorded as -77.4%.
For the compound `Clc1ccccc1Cc1noc(CN2CCCCC2CCc2ccccn2)n1` (stereo not drawn), the “hERG current change (%, negative = inhibition) at 10uM” value was -29.4%.
On to `COc1ccc(-c2ccc(=O)n(CC(=O)Nc3ccc4c(c3)OCCO4)n2)cc1`, for which the “hERG current change (%, negative = inhibition) at 10uM” value is 18.8%.
As for `O=C(COc1ccccc1F)NNC(=O)Cn1c(=O)cnc2ccccc21`, the “hERG current change (%, negative = inhibition) at 10uM” value was found to be 15.3%.
Take `Cc1ccccc1-n1nnnc1SCC(=O)NCC1CCCO1` (stereo not drawn): the “hERG current change (%, negative = inhibition) at 10uM” value is reported as 14.7%.
Turning to `CN(C(=O)COC(=O)c1c[nH]c(=O)[nH]c1=O)C1CCCCC1`, the “hERG current change (%, negative = inhibition) at 10uM” value is -3.35%.
On to `c1cncc(C2CC(c3cccs3)n3ncnc3N2)c1` (stereo not drawn), for which the “hERG current change (%, negative = inhibition) at 10uM” value is on record as -6.38%.
`CC(C)OCCCN1CN(S(=O)(=O)c2ccc(Cl)cc2)c2nc3ccccc3nc21`: the “hERG current change (%, negative = inhibition) at 10uM” value came to 16.6%.
Regarding `Cc1cccc(NC(=O)c2ccccc2NC(=O)c2ccco2)c1`, the “hERG current change (%, negative = inhibition) at 10uM” value worked out at 1.79%.
For `CN(C)c1cccc2c1c(NC(=O)Nc1ccc(F)cc1F)nn2C`, the “hERG current change (%, negative = inhibition) at 10uM” value was determined as 5.57%.
As for `NCCCC[C@@H](C(=O)N1CCNCC1)n1cc([C@@H](N)CC(N)=O)nn1`, the “hERG current change (%, negative = inhibition) at 10uM” value amounted to 6.16%.
Consider `CC1CCN(C(c2nnnn2CCc2ccccc2)C(C)C)CC1` (stereo not drawn), for which the “hERG current change (%, negative = inhibition) at 10uM” value is listed as -9.03%.
For `O=C(CN1C(=O)CCS(=O)(=O)c2ccccc21)Nc1ccccc1F`, the “hERG current change (%, negative = inhibition) at 10uM” value came to 3.96%.
As to `CC(C)(C)C(=O)Nc1cccc(-c2nnc(-c3cccc(NC(=O)C(C)(C)C)c3)o2)c1`, the “hERG current change (%, negative = inhibition) at 10uM” value is listed as -5.21%.
For `COc1cc(CN2CCN(c3ccccc3F)CC2)c([N+](=O)[O-])cc1OC`, the “hERG current change (%, negative = inhibition) at 10uM” value is recorded as -27.4%.
For `Cn1cnnc1Sc1ccc(/C=C(\CCC(=O)O)c2nc3ccccc3s2)cc1[N+](=O)[O-]`, the “hERG current change (%, negative = inhibition) at 10uM” value was -3.23%.
Then `Cc1ccccc1S(=O)(=O)c1c(C)cc(-c2ccccc2)[nH]c1=O`, with 0.781%; and `CCN(CC)c1ccc(/C=N/NC(=O)c2cccc(S(=O)(=O)N3CCOCC3)c2)cc1`, with -24.4%.
Regarding `COc1ccccc1NC(=O)NS(=O)(=O)c1ccc(C)cc1`, the “hERG current change (%, negative = inhibition) at 10uM” value is 21.1%.
With `O=c1c2c(-c3cccs3)csc2ncn1-c1ccc(Br)cc1`, the “hERG current change (%, negative = inhibition) at 10uM” value was -11.4%.
Take `Cc1ccc(NC(=O)CSc2nccn2C)cc1S(=O)(=O)N1CCOCC1`: the “hERG current change (%, negative = inhibition) at 10uM” value is -7.19%.
As to `CN1CCC(=NNC(=O)c2cc(-c3ccc(Cl)cc3)n[nH]2)CC1`, the “hERG current change (%, negative = inhibition) at 10uM” value is reported as -16.4%.
As to `CC1(OC(=O)CCc2ccccc2)C(=O)C=C2C=C(c3ccc(C#N)cc3)N(CCc3c[nH]c4ccccc34)C=C2C1=O` (stereo not drawn), the “hERG current change (%, negative = inhibition) at 10uM” value was -7.98%.
Regarding `CCOC(=O)c1cc(NC(=O)c2cccs2)ccc1N1CCOCC1`, the “hERG current change (%, negative = inhibition) at 10uM” value is recorded as -7.18%.
Then `COc1ccc(C(=O)NN2C(=O)C3CCC(C)(C2=O)C3(C)C)cc1` (stereo not drawn), with 1.82%.
For `COc1cc(NC(=O)Nc2cc(C)on2)cc(OC)c1OC`, the “hERG current change (%, negative = inhibition) at 10uM” value stood at 19.6%.
On to `S=C(Nc1ccccc1)N1CCOCC1`, for which the “hERG current change (%, negative = inhibition) at 10uM” value turned out to be 11.5%.
Then `CC1=CC(C)(C)Nc2ccc(OS(=O)(=O)c3ccc(C)cc3)cc21`, with -1.89%; and `CN1C(=O)C(=O)/C(=C(/O)c2ccc(Br)cc2)C1c1ccc(Cl)cc1` (stereo not drawn), with 16.5%.
`COc1ccccc1NC(=O)c1nn(-c2ccc(F)c(F)c2)ccc1=O`: the “hERG current change (%, negative = inhibition) at 10uM” value was -2.51%.
`C/C(=N\NC(=O)c1ccc(OC2OCCOC2Oc2ccc(C(=O)N/N=C(\C)c3ccncc3)cc2)cc1)c1ccncc1` (stereo not drawn): the “hERG current change (%, negative = inhibition) at 10uM” value was -1%.
Regarding `CC(C)CCNC(=O)NC(=O)COC(=O)/C=C/c1cnc2ccccc2n1`, the “hERG current change (%, negative = inhibition) at 10uM” value is recorded as 0.949%.
`COc1ccccc1N(C(=O)c1ccco1)C(C(=O)NC1CCCC1)c1cccnc1` (stereo not drawn): the “hERG current change (%, negative = inhibition) at 10uM” value was -0.441%.
On to `CC(=O)Nc1ccc2c(c1)CC1(C(=O)N(C)C(=O)N(C)C1=O)C1CCCN21` (stereo not drawn), for which the “hERG current change (%, negative = inhibition) at 10uM” value is 12.3%.
As for `COc1ccccc1C(=O)Nc1ccc2c(c1)OCCO2`, the “hERG current change (%, negative = inhibition) at 10uM” value is on record as 15.8%.
For the compound `O=C(/C=C/c1cccc([N+](=O)[O-])c1)Nn1c(-c2ccccc2F)nc2ccccc2c1=O`, the “hERG current change (%, negative = inhibition) at 10uM” value is on record as -23.1%.
Then `O=C(O)c1cc(=O)c2cc(Cl)ccc2o1`, with 17.3%; and `Cc1ccccc1-c1nc2ccccc2o1`, with 8.78%; and `CNC(=S)NNc1nc(-c2ccccc2)c2cc(Cl)ccc2n1`, with 2.33%.
For `CCOC(=O)C1=C(C)N(C)C(C)=C(C(=O)OCC)C1c1ccc(C(=O)OC)cc1` the value was 4.71%; for `Cc1ccc(C)c(NS(=O)(=O)c2ccc3[nH]c(=O)oc3c2)c1`, 1.28%.
With `O=C(CSc1ncnc2scc(-c3ccccc3)c12)N1CCN(c2ccccc2F)CC1`, the “hERG current change (%, negative = inhibition) at 10uM” value is reported as 17.4%.
Take `CCOC(=O)C1CCCN(C(=O)CCCn2nnnc2CN2CCC(C)CC2)C1` (stereo not drawn): the “hERG current change (%, negative = inhibition) at 10uM” value is -8.13%.
For `O=C(NCCCCNC(=O)c1c(F)c(F)c(F)c(F)c1F)c1c(F)c(F)c(F)c(F)c1F` the value was 6.49%; for `COc1cc(OC)cc(C(=O)Nc2ccc(S(=O)(=O)N(C)C)cc2)c1`, 0.297%.
On to `CCC(C)(C)n1nnnc1C(c1ccc2ncccc2c1)N1CCCCCC1` (stereo not drawn), for which the “hERG current change (%, negative = inhibition) at 10uM” value turned out to be 6.75%.
Take `CC(C(=O)Nc1ccccc1)N(c1cccc(Cl)c1)S(C)(=O)=O` (stereo not drawn): the “hERG current change (%, negative = inhibition) at 10uM” value is given as 0.61%.
For `O=C1OC(c2ccc(F)cc2)=N/C1=C\c1ccc(Br)o1` the value was 12%; for `Cc1ccnc(NC(=O)CCC(=O)N(CC(=O)NCc2ccc(F)cc2)c2ccc(F)cc2)c1`, 4.38%; for `Cc1csc(NC(=O)C(Cl)c2ccccc2)n1.O=C(O)C(Cl)c1ccccc1` (stereo not drawn), 9.4%.
Then `O=C(OCC(=O)N1CCCc2ccccc21)c1ccc(F)c(S(=O)(=O)N2CCOCC2)c1`, with -23.7%.
